These results are taken from PubChem BioAssay AID1508642 (National Center for Advancing Translational Sciences (NCATS), 2021).

In all, about 43,000 compounds went through this assay and about 200 (0.47%) were called active. About 12% were inconclusive and are not listed. Calls come from the whole dose curve; as a rule, active = well fitted cell-killing curve with a large enough effect; inconclusive = small, poorly fitted or top-dose-only effect, or effect the other way; inactive = flat fitted curve, though single readings scatter. Some of the results follow.
% is set by controls: 0 for no effect and ±100 for the full control effect; potency is the fitted concentration of half-maximal effect.

This assay is described as follows: Cell viability qHTS assay in S16 Pmp22-F2sN cells. Note: nearly all actives have a fitted effect of over 65% in size. The conditions noted are these: S16 Pmp22-F2sN Schwann cells (luciferase reporters placed in the Pmp22 gene) viability, CellTiter-Glo, 24 h; series mostly up to 57.5 µM; activity change, negative = cytotoxicity: at the top concentration. The gist of the method: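 CellTiter-Glo counter-screen, qHTS, 1536-well. Cells: S16(c9) Pmp22-F2sN, 500-1,000/well in DMEM + 10% FBS. Cpd 23 nL pin transfer, 24 h, 37C/5% CO2. Read: luminescence, CCD imager.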
(qHTS replaces the single test concentration by a dilution series.)
For `Cc1ccc(CNC(=O)c2cc3c(=O)n(Cc4cccnc4)ccc3nc2C)cc1`, the “activity change, negative = cytotoxicity” value was inactive: 4.82%.
With `CCOc1cccc(C2c3c(-c4cc(C)ccc4O)n[nH]c3C(=O)N2Cc2ccco2)c1` (centres undefined), the “activity change, negative = cytotoxicity” value was inactive: -23.2%.
On the same count and under the same terms, in the case of `COc1ccc(OC)c(CCNC(=O)c2csc3c2CCCCC3)c1` it was inactive: -15.1%; in that of `Cc1ccc(-c2cc(C(F)(F)F)c(C#N)c(SCC(=O)Nc3ccccc3)n2)cc1`, inactive: 3.62%; in that of `Cc1cccc(C)c1OCc1nc2c3c(-c4ccccc4)c(-c4ccccc4)oc3ncn2n1`, inactive: 1.67%.
For the compound `COc1cccc(NC(=O)C2CCN(c3nn4cc(-c5ccc(F)cc5)nc4s3)CC2)c1`, the “activity change, negative = cytotoxicity” value is inactive: 2.8%.
Same read-out and setting: the same measure for `CCn1cc(C(=O)N2CCN(c3ccc(C(C)=O)cc3)CC2)c2cc(OC)c(OC)cc2c1=O`: inactive: 11.3%; for `Cc1ccc(NC(=O)Cn2c(=O)oc3cc(S(=O)(=O)NCc4ccccc4)ccc32)cc1`: inactive: -3.42%; for `CCOc1ccc(CCNC(=O)CN2N=C(c3ccccc3)CCC2=O)cc1OCC`: inactive: 3.25%.
Take `Cc1ccc2nc(N(Cc3cccnc3)C(=O)CCS(=O)(=O)c3ccccc3)sc2c1`: the Potency is active: 17.8 µM.
As to `CC(=O)c1ccc(NC(=O)CSc2nc(-c3cccc(F)c3)nc3c2c(=O)n(C)c(=O)n3C)cc1`, the “activity change, negative = cytotoxicity” value was inactive: -14.9%.
Take `COc1ccc(CNC(=O)c2ccc3c(c2)nc2n3CCOC2)c(OC)c1`: the “activity change, negative = cytotoxicity” value was inactive: 6.18%.
As to `Cc1ccc(CN(Cc2ccco2)C(=O)COc2ccc(C(C)C)cc2)cc1`, the “activity change, negative = cytotoxicity” value is inactive: -3.23%.
Consider `CN1C(C(=O)Nc2ccc(F)cc2F)=CC(c2ccc3c(c2)OCO3)=NS1(=O)=O`, for which the “activity change, negative = cytotoxicity” value was inactive: 9.44%.
For `Cc1cc(C)cc(NC(=O)CN2C(=O)c3ccccc3Sc3ncccc32)c1`, the “activity change, negative = cytotoxicity” value was inactive: 3.45%.
Same read-out and setting: in the case of `CCCCN(CC)CCCNC(=O)c1cc2c(=O)[nH]c3ccccc3c2s1` it was inactive: 3.46%.
Still for that read-out and setting: the same measure for `Cc1ccc2c(c1)C(c1ccc(F)cc1)N(C(=O)c1ccc(OC(C)C)cc1)CC(=O)N2` (centres undefined): inactive: -2.41%; for `Cc1ccccc1C(=O)Nc1cc(-c2ccc(Cl)cc2)nn1-c1ccccc1`: inactive: 2.36%.
On the same count and under the same terms, the same measure for `Cc1ccc(-n2nnc(C(=O)Nc3cc(F)ccc3F)c2C)cc1F`: inactive: 7.84%; for `COc1ccccc1NC(=O)c1sc2nc3c(cc2c1N)CCCCCC3`: inactive: 11.8%.
Take `O=C(c1ccccc1)N1c2ncnn2C2(CCCCC2)[C@@H]2CCCC[C@@H]21`: the “activity change, negative = cytotoxicity” value is inactive: -4.03%.
On the same count and under the same terms, in the case of `COc1ccccc1N1CCN(C(=O)CN2C(=O)COc3ccc(S(=O)(=O)N4CCC(C)CC4)cc32)CC1` it was inactive: 14.4%; in that of `Cc1ccc(NC(=O)C2CCN(c3cc(C)nc4c(-c5ccc(Cl)cc5)c(C)nn34)CC2)c(C)c1`, inactive: 0.352%.
On the same count and under the same terms, the same measure for `COc1ccc(C(=O)CSc2c(C(C)C)cnc3c2c(=O)n(C)c(=O)n3C)cc1`: inactive: 4.67%; for `CCOc1ccc(NC(=O)CSc2nc3c(oc4ccccc43)c(=O)n2CCOC)cc1`: inactive: 0.39%; for `Cc1ccn2c(=O)cc(COc3ccc(NC(=O)c4ccccc4F)cc3)nc2c1`: inactive: -1.27%.
Take `Cn1ncc2nc(SCC(=O)Nc3ccc(Br)cc3F)n(Cc3ccccc3)c(=O)c21`: the “activity change, negative = cytotoxicity” value is inactive: -1.9%.
For `COc1cc2[nH]c(=O)n(CCCC(=O)N3CCN(c4cccc(C(F)(F)F)c4)CC3)c(=O)c2cc1OC`, the “activity change, negative = cytotoxicity” value is inactive: 4.97%.
The same measure, in the same setting: in the case of `CC(C)(C)C(=O)NCCc1csc2nc(-c3ccc(F)cc3)nn12` it was inactive: 2.99%.
For the compound `Cc1ccc(NC(=O)C(Cc2c[nH]c3ccccc23)NC(=O)OCC(C)C)cc1` (centres undefined), the “activity change, negative = cytotoxicity” value was inactive: -20.4%.
For the compound `COc1ccc(/C=C\C(=O)NC2CC(=O)N(c3ccccc3)C2)cc1OC` (centres undefined), the “activity change, negative = cytotoxicity” value is inactive: -0.124%.
Turning to `COc1cc(NC(=O)c2nc(-c3ccncc3)no2)cc(OC)c1OC`, the “activity change, negative = cytotoxicity” value was inactive: -11.6%.
Same read-out and setting: in the case of `Cc1ccc(CN(C(=O)COc2c(C)cccc2C)C2CCS(=O)(=O)C2)o1` (centres undefined) it was inactive: 0.264%.
Same read-out and setting: the same measure for `COC(=O)c1nc2n(n1)C(c1cc(OC)ccc1OC)C(C(=O)Nc1ccc(C)cc1C)=C(C)N2` (centres undefined): inactive: -2.7%; for `Cc1ccc2oc3c(c(=O)c2c1)C1(C(=O)N(C)c2ccccc21)N(CCCO)C3=O` (centres undefined): inactive: 1.2%.
Consider `COc1ccc2oc(-c3ccc(C)c(NC(=O)COc4cc(C)cc(C)c4)c3)nc2c1`, for which the “activity change, negative = cytotoxicity” value was inactive: 5.59%.
On the same count and under the same terms, in the case of `O=C(CCS(=O)(=O)c1cccc2nsnc12)Nc1ccc(F)cc1` it was inactive: 7.52%; in that of `Cc1ccc(-c2cc(C(=O)Oc3ccccc3)c3cc(C)ccc3n2)cc1`, inactive: -0.0076%.
Same read-out and setting: the same measure for `COc1ccc2c(c1)c1c(c(=O)n(-c3cccc(Cl)c3)c(=O)n1CC(=O)N1CCCC1)n2C`: inactive: -9.84%; for `CCOC(=O)Cn1nc(C)c(NC(=O)COc2ccc(Cl)cc2C)c1C`: inactive: -3.77%; for `CCOc1ccccc1NC(=O)Cn1ccn(Cc2ccc(C)cc2)c(=O)c1=O`: inactive: -13.7%.
For the compound `CCC1CCCCN1CCCNC(=O)CN1C(=O)CSc2ccc(S(=O)(=O)N3CCOCC3)cc21` (centres undefined), the “activity change, negative = cytotoxicity” value is inactive: -1.66%.
Still for that read-out and setting: the same measure for `Cc1cc(C)c(NC(=O)Nc2ccc3snnc3c2)c(C)c1`: inactive: -0.927%; for `Clc1ccccc1CNc1ncnc2c1c(-c1ccccc1)cn2-c1ccccc1`: inactive: -14.3%.
For `CCC(C)NC(=O)CSc1nc2c(sc3ccccc32)c(=O)n1Cc1ccccc1Cl` (centres undefined), the “activity change, negative = cytotoxicity” value is inactive: -0.061%.
On the same count and under the same terms, in the case of `Cc1ccc(C)c(CSc2nc3ccncc3n2CC(=O)Nc2ccc(N(C)C)cc2)c1` it was inactive: -10.9%; in that of `Cc1cccc2nc(-c3cccc(NS(=O)(=O)c4ccccc4)c3)cn12`, inactive: -4.44%.
The same measure, in the same setting: the same measure for `CC(=O)c1ccc(NC(=O)COCc2cc(-c3ccco3)on2)cc1`: inactive: 14.1%; for `COc1cccc(N2CC(NC(=O)c3cccc(OC)c3OC)CC2=O)c1` (centres undefined): inactive: 10.9%.
